# The shares of active, inactive and inconclusive entries below differ from those in the screen. No potency is given beside an inconclusive call; the fits are too rough. The source made the active and inactive calls. The call rests on the fitted dose curve; in most records, active means well fitted inhibition curve with a large enough effect; inconclusive means small, poorly fitted or top-dose-only effect; inactive means no such curve, though single readings can be large or run the other way.
# Molecular target: Retinal dehydrogenase 2 (Homo sapiens) (UniProt O94788)
# Experiment: qHTS for Inhibitors of the Aldehyde Dehydrogenase Family (ALDH1A2) Confirmation screens (AID 2061314); further: nearly all actives have a fitted effect of over 65% in size
# Details: ALDH1A2 enzyme inhibition qHTS confirmation; activity, negative = inhibition: at 45.9 µM (top of the series) unless noted; series mostly up to 45.9 µM
# On the % scale 0 is the no-effect control and ±100 the full control effect; potency means the concentration at half of the fitted maximal effect; tags describe the fitted curve by direction and shape.
Structure (SMILES),"activity, negative = inhibition",Potency,outcome
COCC1CN(Cc2ccc(C(F)(F)F)cc2)CC12CCNCC2 (configuration not stated),inactive: -16.7%,–,–
Cc1ccc(-n2c(-c3cccc(C)c3)nc3c(cnn3-c3ccccc3)c2=O)cc1,inactive: -10.2%,–,–
CCc1cnc2c(c1SCc1ccccc1C)c(=O)n(C)c(=O)n2C,inactive: -2.82%,–,–
O=C(NCCNC(=O)c1ccc(C(F)(F)F)cc1)c1ccc(-c2cccc(C(F)(F)F)c2)cc1,–,"inconclusive [inhibitor, single point]",–
O=C(NCC(=O)N1CCOCC1)c1cccc(-c2ccc(C(F)(F)F)cc2)c1,inactive: -24%,–,–
CCN(CC)S(=O)(=O)c1ccc2c(c1)N(CC(=O)N1CCN(c3cccc(C(F)(F)F)c3)CC1)C(=O)CO2,inactive: -100%,–,–
COc1ccc(CC(=O)NCCNC(=O)c2ccc(-c3cccc(C(F)(F)F)c3)cc2)cc1,inconclusive: -47.5% [inhibitor],–,–
CCc1c(-c2ccccc2)nc2ccccc2c1C(=O)NC(C)c1ccccc1 (configuration not stated),inactive: -15.2%,–,–
CCc1cnc2c(c1SCc1c(F)cccc1Cl)c(=O)n(C)c(=O)n2C,–,"inconclusive [inhibitor, partial curve, poor fit]",–
CCCCOc1ccc(C(=O)N(Cc2ccc(N(C)C)cc2)Cc2ccco2)cc1,inactive: -49%,–,–
Cc1cc(C)n2nc(CNS(=O)(=O)c3cccc(Cl)c3)nc2n1,inactive: -5.13%,–,–
CCc1nn2c(=O)c(S(=O)(=O)Nc3ccc(Br)cc3F)c(C)nc2s1,inactive: -11.6%,–,–
O=C(NCC(=O)N1CCOCC1)c1ccc(-c2cnc3ccccc3c2)cc1,inactive: -4.18%,–,–
CCc1ccc(-n2c(SCc3ccccc3F)nc3[nH]ncc3c2=O)cc1,inconclusive: -30.4% [inhibitor],–,–
Cn1cnc(S(=O)(=O)N2CCCC(C(=O)Nc3ccc(OC(F)(F)F)cc3)C2)c1 (configuration not stated),–,"inconclusive [inhibitor, partial curve, poor fit]",–
COc1cccc(C(=O)NCCNC(=O)c2ccc(-c3cccc(C(F)(F)F)c3)cc2)c1,–,"inconclusive [inhibitor, single point]",–
CCc1nn2c(=O)c(S(=O)(=O)Nc3ccc(C(C)C)cc3)c(C)nc2s1,inactive: -1.75%,–,–
O=C(CN1C(=O)CCc2cc(S(=O)(=O)N3CCOCC3)ccc21)Nc1cccc(C(F)(F)F)c1,–,"inconclusive [inhibitor, full curve, poor fit]",–
COc1ccc(S(=O)(=O)N2C[C@@H](F)[C@@H](OCc3nc4ccccc4o3)C2)cc1,inconclusive: -34.6% [inhibitor],–,–

Structure (SMILES),"activity, negative = inhibition",Potency,outcome
COc1ccc(S(=O)(=O)NCC(c2ccco2)N2CCOCC2)cc1C (configuration not stated),inactive: -11.5%,–,–
CCOc1ccccc1NC(=O)c1cnc(N2CCOCC2)c2ccccc12,inactive: -9.83%,–,–
COc1cccc(-n2c(SCc3ccccc3C)nc3c([nH]c4ccccc43)c2=O)c1,inactive: -24.5%,–,–
CC(C)NS(=O)(=O)c1ccc(OCC(=O)N2CCN(c3ccccc3F)CC2)cc1,inactive: -37.4%,–,–
Cc1cccc(-c2nc3c(cnn3-c3ccccc3)c(=O)n2-c2ccc(Br)cc2)c1,inactive: -14.4%,–,–
CCOCc1cc(CN2CCN(c3cccc(C(F)(F)F)c3)CC2)c(O)c2ncccc12,inactive: -10.1%,–,–
Fc1cc(F)cc(Cc2nc3nccc(-c4cccnc4)n3n2)c1,inactive: -19.3%,–,–
COc1ccccc1CCNC(=O)C(=O)NCC(c1ccco1)S(=O)(=O)c1ccccc1 (configuration not stated),inconclusive: -41.9% [inhibitor],–,–
CCOc1ccc(S(=O)(=O)Nc2cccc(OC)c2)c2cccnc12,–,"inconclusive [inhibitor, full curve, poor fit]",–
O=C(NCCOc1ccccc1)[C@@H]1C[C@@H](c2ccc(F)cc2)N([S+](=O)([O-])c2ccccc2)C1,inactive: -9.76%,–,–
CC(C)CN1C(=O)CO[C@H](c2ccc(NS(=O)(=O)c3cccc(F)c3)cc2)[C@H]1CO,inactive: -11.4%,–,–
COC(=O)c1ccccc1NC(=O)CSc1nc(-c2ccccc2)cc(C(F)(F)F)n1,inactive: -10%,–,–
CCOc1ccc(-c2cc(C(=O)NC(C)c3ccccc3)c3ccccc3n2)cc1 (configuration not stated),–,–,inactive
COc1ccc(S(=O)(=O)N2C[C@@H](Oc3ccccc3)C[C@@H]2C(=O)N2CCOCC2)cc1,inactive: -10.4%,–,–
O=S(=O)(NCCn1cc(-c2cncnc2)nn1)c1ccc(Cl)cc1,–,–,inactive; activator
COCCn1c(SCc2ccccc2F)nc2c([nH]c3ccccc32)c1=O,inactive: -23.4%,–,–
Cc1nn(-c2ccc3nncn3n2)c(C)c1CCC(=O)Nc1ccc(OC(F)(F)F)cc1,–,–,inactive
COc1cc2nc(NC(=O)c3ccc(S(=O)(=O)N4CCOCC4)cc3)sc2cc1OC,inactive: -23.7%,–,–
